# Data published in publication PMC4336329 (PLoS ONE, 2015).
# The whole screen tested about 310,000 compounds, of which about 14,000 (4.5%) showed an effect of 50% or more. The effect is printed as a negative number. The list shows a part of the results.
# Biological target: human ether-à-go-go-related gene (hERG) potassium channel (human, UniProt Q12809)
# Assay: primary screen, population patch clamp on CHO cells stably expressing hERG
# 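Note: peak tail current of the secondary pulse compared with the same well before compound.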
# Chain of human ether-à-go-go-related gene (hERG) potassium channel (Q12809 whole entry, looked up): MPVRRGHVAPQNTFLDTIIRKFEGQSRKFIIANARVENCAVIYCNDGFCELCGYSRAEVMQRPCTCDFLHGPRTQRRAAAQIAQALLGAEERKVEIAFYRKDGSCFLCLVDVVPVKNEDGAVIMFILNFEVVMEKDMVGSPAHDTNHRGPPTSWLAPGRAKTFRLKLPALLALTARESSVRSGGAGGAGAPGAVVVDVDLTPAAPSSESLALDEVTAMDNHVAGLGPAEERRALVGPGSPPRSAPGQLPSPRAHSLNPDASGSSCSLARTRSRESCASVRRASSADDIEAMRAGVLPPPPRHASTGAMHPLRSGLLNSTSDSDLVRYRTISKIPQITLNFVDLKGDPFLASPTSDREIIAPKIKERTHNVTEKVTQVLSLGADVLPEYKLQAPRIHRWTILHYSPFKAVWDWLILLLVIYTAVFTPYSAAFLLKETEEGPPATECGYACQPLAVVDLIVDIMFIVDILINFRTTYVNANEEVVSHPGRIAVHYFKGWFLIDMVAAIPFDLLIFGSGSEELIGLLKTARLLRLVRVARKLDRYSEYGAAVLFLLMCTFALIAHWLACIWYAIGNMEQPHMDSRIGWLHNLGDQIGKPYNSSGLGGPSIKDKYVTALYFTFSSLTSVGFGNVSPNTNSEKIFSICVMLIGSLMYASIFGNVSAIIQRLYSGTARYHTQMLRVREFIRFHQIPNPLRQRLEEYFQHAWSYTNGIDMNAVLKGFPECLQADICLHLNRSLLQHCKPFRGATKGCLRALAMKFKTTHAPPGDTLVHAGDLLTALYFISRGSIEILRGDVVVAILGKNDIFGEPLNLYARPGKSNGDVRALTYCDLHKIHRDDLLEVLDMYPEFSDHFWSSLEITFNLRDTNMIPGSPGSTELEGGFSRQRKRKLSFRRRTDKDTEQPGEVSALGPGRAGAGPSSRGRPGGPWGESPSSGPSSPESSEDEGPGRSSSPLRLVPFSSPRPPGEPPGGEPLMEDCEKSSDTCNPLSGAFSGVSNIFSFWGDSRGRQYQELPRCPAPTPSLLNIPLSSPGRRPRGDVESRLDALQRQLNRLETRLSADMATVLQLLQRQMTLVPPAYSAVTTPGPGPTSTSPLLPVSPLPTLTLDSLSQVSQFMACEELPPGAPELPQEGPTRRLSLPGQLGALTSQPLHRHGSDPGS
row,SMILES,"hERG current change (%, negative = inhibition) at 10uM [%]"
1,COc1cccc(C(=O)Nc2ccc3nc(N4CCOCC4)cc(C)c3c2)c1,-55
2,COc1cccc(/C=N/NC(=S)Nc2cccc(C(=O)O)c2)c1O,22.6
3,COc1cc(OC)cc(C(=O)NNC(=O)CN2C(=O)NC3(CCCC3)C2=O)c1,-1.64
4,Cc1ccc(SCC(=O)Nc2c(Br)cnn2C)cc1,13.6
5,Cc1ccc(-c2csc3ncnc(NCCC(=O)O)c23)cc1C.Cl,2.42
6,O=C(Nc1ccccc1NC(=O)c1ccccc1Cl)c1ccccc1Cl,17.5
7,CCn1ncc(CNC(=O)C2(C)CC2(Cl)Cl)c1C (stereo not shown),13.4
8,COc1ccc(Cl)cc1Nc1cc(C)nc2nc(C)nn12,-13.6
9,O=C(CCCN1C(=O)/C(=C\c2ccccc2)SC1=S)Nc1ccc(C(=O)O)cc1,12.4
10,COc1ccc2cc(CN(CC3CCCO3)C(=S)Nc3ccccc3)c(=O)[nH]c2c1 (stereo not shown),-33.9
11,Cc1cc(C)cc(NC(=S)N(CCN2CCCCC2)Cc2ccco2)c1,-74.4
12,Cc1ccc(C(=O)NCCCn2ccnc2)cn1,4.36
13,Cn1c(=O)c2nc(-c3ccccc3)oc2c2ccccc21,-1.46
14,NC1=NC[C@H](Cc2ccccc2)N1CCc1cccc(F)c1,6.16
15,CCOC1(C(F)(F)F)NC(=O)N(Cc2ccc(OC)cc2)C1=O (stereo not shown),-5.95
16,Cc1cc(C(=O)Nc2ccc(Br)cc2F)n(-c2ccccc2)n1,-13.3
17,O=C(Cn1nc(C(=O)O)c2ccccc2c1=O)Nc1cccc(S(=O)(=O)N2CCOCC2)c1,-25.1
18,Cc1ccccc1-c1nc(CS(=O)(=O)CC(=O)N2CCc3ccccc32)c(C)o1,-11.6
19,O=S(=O)(N/N=C\c1cn(-c2ccccc2)nc1-c1ccccc1)c1ccccc1,5.42
20,O=C(Nc1cnccc1C(F)(F)F)NC1CCCCC1,5.81
21,COc1ccc(NC(=O)COC(=O)CCc2nc3ccccc3c(=O)[nH]2)c(OC)c1,7.12
22,O=[N+]([O-])c1nn(-c2ccc3c(c2)OCCO3)n(O)c1=NCc1ccc(F)cc1Cl,-7.4
23,Cc1ccc(OCC(=O)NCCCNC(=O)c2ccncc2)cc1,1.84

row,SMILES,"hERG current change (%, negative = inhibition) at 10uM [%]"
1,Cn1nc([N+](=O)[O-])c(C(C#N)c2nc3ccccc3n2C)c(Cl)c1=O (stereo not shown),-19.2
2,Cc1ccc(S(=O)(=O)N2CCOCC2)cc1C(=O)OC(C)C(=O)c1ccccc1 (stereo not shown),0.818
3,COc1ccc(C2=NCCNC(C(F)(F)F)=C2)cc1,-2.67
4,CC(=O)n1cc(/C=N/NC(=O)c2ccccc2O)c2ccccc21,9.58
5,COc1cccc(CN2CC(C(=O)N3CCOCC3)CCC2=O)c1 (stereo not shown),33.3
6,C=CCSc1nc2c(c(=O)[nH]c(=O)n2C)n1Cc1ccccc1,-22.3
7,CCS(=O)(=O)N1CCCC(C(=O)NC2CCCCC2C)C1 (stereo not shown),5.94
8,CC(C)=CCN1CCN(Cc2cc(CC(C)C)n[nH]2)CC1CCO (stereo not shown),-9.57
9,O.c1ccc2c(CN3CCN(C4CCCCC4)CC3)c[nH]c2c1,-18.2
10,CC(=O)NS(=O)(=O)c1ccc(NC(=O)CSc2ccc(C)cc2)cc1,13.5
11,CCOc1ccc(C(CC(=O)O)NC(=O)c2cccs2)cc1OC (stereo not shown),12.6
12,CCn1c(C(C)NC(=O)c2cccc(C)c2)nc2ccccc21 (stereo not shown),-19.6
13,COc1ccccc1NC(=O)Cn1nc(-c2ccc(Cl)cc2)c2ccccc2c1=O,-0.684
14,CCOc1cc(C(=O)N2CCN(c3ccccn3)CC2)cc(OCC)c1OCC,4.95
15,Cc1ccc(C(C)NC(=O)Cc2cccs2)c(C)c1 (stereo not shown),-9.26
16,COc1ccccc1CNC(=O)C(=O)NCC1CCCN1S(=O)(=O)c1cccs1 (stereo not shown),-9.48
17,CC(C)(C)NC(=O)COC(=O)c1ccc(S(=O)(=O)N2CCCCCC2)cc1,0.654
18,O=C(c1ccccc1)N1CCC2(CC1)NCCc1[nH]cnc12,26.6
19,O=C(N/N=C/CCc1ccccc1)C1CCCCC1,13
20,Cc1cc(NC(=O)CCC2CCCC2)no1,-1.81
21,COC(=O)Cc1c(C(=O)OC)nnn1-c1cccc(C(F)(F)F)c1,4.71
22,O=C(NCCCN1CCOCC1)c1cc(-c2ccc(Cl)s2)nc2ccccc12,-44.1
23,COc1ccc(/C(C)=N/NC(=O)c2nnn(-c3nonc3N)c2CN(C)c2ccccc2)cc1,14.8

row,SMILES,"hERG current change (%, negative = inhibition) at 10uM [%]"
1,COc1ccc(/C=C/C(=O)ONC2=NCCCCC2)cc1OC,8.3
2,CCOc1ccc(S(=O)(=O)Nc2nccs2)cc1,16.9
3,COc1ccc(CNC(=O)COC(=O)c2ccccn2)cc1,21.8
4,Cc1ccc(NC(=O)Cc2ccc3c(c2)CCCC3)cc1C,-6.8
5,Cc1ccc(NC(=S)NC2CCN(Cc3ccccc3)CC2)c(C)c1,-12.9
6,O=C(NCC1CCCO1)C1CCN(S(=O)(=O)c2cccnc2)CC1 (stereo not shown),-6.63
7,O=C(O)c1cccc(-n2cccc2C=C2C(=O)c3ccccc3C2=O)c1,15.9
8,Clc1cccc(/C=N\Nc2nccs2)c1,-2.59
9,Cc1nc2ccccc2c(=O)n1-c1ccncc1,8.6
10,CCCCCn1c(=O)[nH]c2cc(C(=O)NCCCN(CC)CC)ccc2c1=O,-15.5
11,Cc1cc(/C=C(\C#N)C(=O)NCc2cccs2)c(C)n1-c1ccccc1F,7.95
12,Cc1ccc(Nc2ccc(C(N)=O)cc2[N+](=O)[O-])cc1,1.53
13,CC1CN(C(=S)SCC(=O)c2ccccc2)CC(C)O1 (stereo not shown),-4.4
14,Cc1ccccc1NC(=O)c1nn(C)c2c1CS(=O)(=O)c1ccccc1-2,5.26
15,Cc1ccc(NC(=S)N(CCN2CCOCC2)Cc2cc3cc4c(cc3[nH]c2=O)OCCO4)cc1,-14.3
16,COc1ccc(CSc2nncn2C)cc1[N+](=O)[O-],4.92
17,CCc1ccc(C(=O)NNC(=O)C2CSC3(C)CCC(=O)N23)cc1 (stereo not shown),-6.99
18,CCCCOc1ccc(C(=O)NNC(=O)C2C3CCC(C3)C2C(=O)O)cc1 (stereo not shown),5.03
19,CCn1nc(C(=O)Nc2nc3ccccc3[nH]2)c2ccccc2c1=O,-25.9
20,COc1ccc(N2CCN(C(=O)c3ccc4c(c3)CCN4S(=O)(=O)c3ccccc3)CC2)cc1,-23.2
21,Cc1cccc2sc(N(CCCN(C)C)C(=O)CCS(=O)(=O)c3ccccc3)nc12,-35
22,CCN(CC)C1CCN(C(=O)CCn2nnnc2CN2CCOCC2)C1 (stereo not shown),18.4
23,S=C1SCN(CC2CC2)CN1CC1CC1,-8.19

row,SMILES,"hERG current change (%, negative = inhibition) at 10uM [%]"
1,COc1cc(C)c(S(=O)(=O)N2CCN=C2c2ccccc2)cc1C,-4.77
2,CCOc1ncccc1C(=O)N(C)CC(=O)Nc1ccc(C)cc1,-3.99
3,CC(Oc1ccc(Br)cc1)C(=O)Nc1ccc(N2CCOCC2)cc1N1CCOCC1 (stereo not shown),-43.7
4,COc1ccccc1-c1nc(C#N)c(N2CCN(c3ccccc3)CC2)o1,-8.28
5,COc1ccc(CC2=CC(=O)c3ccccc3C2=O)cc1,4.71
6,O=C(c1ccc(S(=O)(=O)Nc2ccc(F)cc2)cc1)N1CCN(C(=O)c2ccco2)CC1,-29.4
7,O=C(Nn1cnc2ccccc2c1=O)c1cccc(Cl)c1,9.21
8,COc1cc2c(cc1OC)C(C1(O)CCCCC1)NCC2 (stereo not shown),15.7
9,CCOC(=O)c1c(C)c(C(=O)OCC)n(C)c1C,3.21
10,COc1ccc(O)c(-c2cc(-c3ccccc3[N+](=O)[O-])[nH]n2)c1,-11.7
11,COc1ccccc1C(=O)N1CCN=C1c1ccccc1,-2.18
12,COc1ccc(N2CCN(C(=O)c3cccnc3)CC2)c([N+](=O)[O-])c1,-70.8
13,CSc1ccc(C(=O)C2CCCN(Cc3cccc4nccnc34)C2)cc1 (stereo not shown),-82.8
14,CCN(CC)S(=O)(=O)c1ccc2c(c1)N(CC(=O)NCCCN1CC(C)CC(C)C1)C(=O)CO2 (stereo not shown),-5.66
15,Clc1ccc(NCc2cccnc2)c(Cl)c1,9.74
16,COc1ccc(CNC(=O)C(C#N)c2nc3ccccc3nc2N2CCN(C)CC2)cc1 (stereo not shown),-40.4
17,CC(C)OCCCNC(=O)COCC(=O)Nc1ccc(OCCc2ccccc2)cc1,-25.8
18,O=C1Nc2ccccc2C12OCCCO2,-12.1
19,Cc1ccc(CNC(=O)CCNC(=O)Cn2ccc3ccccc3c2=O)cc1,8.67
20,CCc1cccc(CC)c1NC(=O)C[n+]1cccc(C(N)=O)c1.[Cl-],6.92
21,COc1cccc(NC(=S)NC(=O)c2cccnc2)c1,9.58
22,Cc1ccc(N2C(=O)CC(C)(C)CC2=O)cc1Cl,13.4
